The values below come from the RNAGym collection of RNA variant scans (doi:10.7554/elife.90254).

The source gives no read counts; variants with many changes may rest on few reads.

B1: OR4K15 (parent)
chain: GUUAACGGUCAUAGGCCAUGGAAACUAGGAGCACCAUUUCGCUGCCAGUGAAGAAAUGAACAAAGAAAAUCUGGGCCAGGCAGGCAUCAAAAGAAAUAGUCUUGCGCUCAACCAGAAAGUCUGUAAUCAUUUUAAGGGUA

Variants of B1 are the subject of this series. The series can be described thus: self-cleavage, relative activity (ratio to wild type); higher = more cleavage; in vitro, sequencing; the parent is a self-cleaving ribozyme.
GUUAACGGUCAUAGGCCAUGGUAGCUAGGAGCACCAUUUCGCUGCCAGUGAAGAAAUGAACAAAGAAAAUCUGGGCCAGGCAGGCAUCAAAAGAAGUAGUCUUGCGCUCAGCCAGAAAGUCUGUAAUCAUUUUAAGGGUA [A22U A24G A96G A111G]: the self-cleavage worked out at 0.02.
For the variant GUUAACGGUCAUAGGCCAUGGUAACUAGGAGCACCAUUUCGCUGCCAGUGGAGAAAUGAACAAAGAAAAUCUGGGCCAGGCAGGCAUCAAAAGAAGUAGUCUUGCGCUCAACCAGAAAGUCUGUAAUCAUUUUAAGGGUA [A22U A51G A96G], the self-cleavage came out at 2.03.
On to GUUAACGGUCAUAGGCCAUGGGAACUAGGAGCACCAUUUCGCUGCCAGUGAAGAAAUGAACAAAGAAAAUCAGGGCCAGGCAGGCAUCAAAAGAAAUAGUCUUGCGCUCAACCAGAAAGUCUGUAAUCAUUUUAGGGGUA [A22G U72A A135G], for which the self-cleavage came out at 0.18.
For the variant GUUAACGGUCAUAGGCCAUGGUAACUAGGAGCACCAUUUCGCUGCCAGUGAAGGAAUGAACAAAGUAAAUCUGGGCCAGGCAGGCAUCAAAAGAAAUAGUCUUGUGCCCAACCAGAAAGUCUGUAAUCAUUUUAAGGGUA [A22U A54G A66U C105U U108C], the self-cleavage came out at 0.03.
Take GUUAACGGUCAUAGGCCAUGGGAACUAGGAGCACCAUUUCGCUGCCAGUGAAGAAAUGAACAAAGAAAACCUGGGCCAGGCAGGCAUCAAAAGGAAUAGUCUUGCGCUCAACCAGAAAGUCUGCAAUCAUUCUAAGGGUA [A22G U70C A94G U124C U132C]: the self-cleavage was 0.18.
On to GUUAACGGUCAUAGGCCAUGGUUACUAGGAGCACCAUUUCGCUGCCAGUGAAGAAAUGAACAAAGAAAAUCUGGGCCAGGCAGGCAUCAGAAGAAAUAGUCUUGCGCUCAACCAGAAAGUCUGUAAUCAUUUUAAGGGUA [A22U A23U A90G], for which the self-cleavage worked out at 0.96.
For the variant GUUAACGGUCAUAGGCCAUGGGAACUAGGAGCACCAUUUCGCUGCCAGUGAAGAAAUGAACAAAGAAAAUCUGGGCCAGGCAGGCAUCAAAAGAAAUAGUCUUGCGCUCAACCAGAAAGUCUGUAAUCAUCUUAAGGGUG [A22G U131C A140G], the self-cleavage is 1.12.
For GUUAACGGUCAUAGGCCAUGGGAACUAGGAGCACCAUUUCGCUGCCAGCGAAGAAAUGAACAAAGAGAAUCUGGGCCAGGCAGGCAUCAAAAGAAAUAGUCUUGCGCUCAACCAGAAAGUCUGUAAUCAUUUUAAGGGUA [A22G U49C A67G], the self-cleavage worked out at 0.57.
With GUUAACGGUCAUAGGCCAUGGGAACUAGGAGCACCAUUUCGCUGCCAGUGAAGAAAUGAACAAAGAAAAUCUGGGCCAGGCAGGCAUCAAAAGAAAUAGUCCCGCGCUCGACCAGAAAGUCUGUGAUCAUUUUAAGGGUA [A22G U102C U103C A110G A125G], the self-cleavage was found to be 0.01.
On to GUUAACGGUCAUAGGCCAUGGUAACUAGGGGCACCAUUUCGCUGCCAGUGAAGAAAUGAACAAAGAAAAUCUGGGCCAGGCAGGCAUCAAAAGGAAUAGUCUUGCGCUCAACCAGAAAGUCUGUAAUCAUUUUAAGGGUA [A22U A30G A94G], for which the self-cleavage was determined as 0.73.
The figure for GUUAACGGUCAUAGGCCAUGGUAACUAGGAGCUCCAUUUCGCUGCCAGUGGAGAAAUGAACAAAGAAAAUCUGGGCCAGGCUGGCAUCAAAAGAAAUAGUCCUGCGCUCCACCAGAAAGUCUGUAAUCAUUUUAAGGGUA [A22U A33U A51G A82U U102C A110C] is 0.06; for GUUAACGGUCAUAGGCCAUGGGAACUAGGAGCACCAUUUCGCUGCCAGCGAAGAAGUGAACAAAGAAAAUCUGGGCCAGGCAGGCAUCAAAAGAAAUAGUCUUGCGUUCAACCAGAAAGUCUGUAAUCAUUUUAAGGGUA [A22G U49C A56G C107U] it is 0.02; for GUUAACGGUCAUAGGCCAUGGGAACUAGGAGCACCAUUUCGCUGCCAGUGAAGAAACGAACAAAGAAAAUCUGGGCCAGGCAGGCAUCAAAAGAAAUAGUCUUGCGCCCAACCAGAAAGUCUGUUAUCAUUUUAAGGGUA [A22G U57C U108C A125U] it is 0.04.
Regarding GUUAACGGUCAUAGGCCAUGGGAACUAGGAGCACCAUUUCGCUGCCAGUGAAGAAAUGAACAAAGAAAAUCUGGGCCAGGCAGGCAACAAAAGAAAUAGUCUUGCGCUCAACCAGAAAGUCUGUAGUCGUUUUAAGGGUA [A22G U87A A126G A129G], the self-cleavage was found to be 0.42.
Take GUUAACGGUCAUAGGCCAUGGUAACUGGGAGCACCAUCUCGCUGCCAGUGAAGAAAUGAACUAAGAAAAUCUGGGCCAGGCAGGCAUCAAAAGAAAUAGUCUUGCGCUCAACCAGAAAGUCCGUGAUCAUUUUAAGGGUA [A22U A27G U38C A62U U122C A125G]: the self-cleavage stood at 0.21.
GUUAACGGUCAUAGGCCAUGGGAACUAGGAGCACCAUUUCGCUGCCAGUGAAGAAAUGAACAAAGAAAAUCAGGGCCAGGCAGGCAUCAAAAGAAAUAGUCUUGCGCUCAACCAGAAAGUCUGUAACCAUUUUAAGGGUA [A22G U72A U127C]: the self-cleavage came out at 0.06.
The figure for GUUAACGGUCAUAGGCCAUGGGAACUAGGAGCACCAUUUCGCUGCCAGUGAAGAAAUGAACAAAGAAAAUCUGGGCCAGGCAGGCAUCAAAAGAAAUAGACUUGCGCUCAGCCAGAAAGUCUGUAAUCAUUUUAAGGGUA [A22G U100A A111G] is 0.03.
Regarding GUUAACGGUCAUAGGCCAUGGGAACUAGGAGCACCAUUUCGCUGCCAGUGAAGAAAUGAACAAAGAAAAUCUGGGCCAGGCAGGCAACAAAAGAGAUAGUCUUGCGCUCAACCAGAAAGUCUGUAAUCAUUUUAAGGGCA [A22G U87A A95G U139C], the self-cleavage is 1.13.
For GUUAACGGUCAUAGGCCAUGGGAACUAGGAGCACCAUUUCGCUGCCAGUGAAGAAAUGAACAAAGAAAACCUGGGCCAGGCAGGCAUCAAAAGAAAUAGUCUUGCGCUCAACCAGAACGUCCGUAAUCAUUUUAAGGGUA [A22G U70C A118C U122C], the self-cleavage was determined as 0.1.
With GUUAACGGUCAUAGGCCAUGGGAACUAGGAGCACCAUUUCGCUGCCAGUGAAGAAAAGAACAAAGAAAAUCUGGGCCAGGCAGGCAUCAAGAGAAAUAGUCUUGCGCUCAACCAGAAAGUCUGUAAUCAUUUUAAGGGUG [A22G U57A A91G A140G], the self-cleavage came out at 0.78.
The figure for GUUAACGGUCAUAGGCCAUGGGAACUAGGAGCACCAUUUCGCUGCCAGUGAAGAAAUGAACAAAGAAAAUCUGGGCCAGGCAGGCACCAAAAGAAAUAGUUUUGCGCUCAUCCAGAAAGUCUGUAAUCAUUUUAAGGGUA [A22G U87C C101U A111U] is 0.06.
